{
  "source": "the supplement of paper PMC8728848",
  "binders": {"B1": {"name": "DC-ASGPR-short (Homo sapiens) (protein)", "chain": "MTRTYENFQYLENKVKVQGFKNGPLPLQSLLQRLRSGPCHLLLSLGLGLLLLVIICVVGFQNSKFQRDLVTLRTDFSNFTSNTVAEIQALTSQGSSLEETIASLKAEVEGFKQERQAVHSEMLLRVQQLVQDLKKLTCQVATLNNNASTEGTCCPVNWVEHQDSCYWFSHSGMSWAEAEKYCQLKNAHLVVINSREEQNFVQKYLGSAYTWMGLSDPEGAWKWVDGTDYATGFQNWKPGQPDDWQGHGLGGGEDCAHFHPDGRWNDDVCQRPYHWVCEAGLGQTSQESH"}},
  "experiment_in_all_cases": "glycan array binding signal (z-score within array); higher = stronger binding",
  "conditions_in_all_cases": "glycan notation: IUPAC condensed, linker removed",
  "key": {"[1]": {"target": "Gal(b1-4)GlcNAc(b1-2)Man(a1-6)[GlcNAc(b1-2)Man(a1-3)]Man(b1-4)GlcNAc(b1-4)GlcNAc", "procedure,_shortened": "(§1)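 From the Consortium for Functional Glycomics database, 3228 arrays were curated, keeping only those whose protein sequence was available. Binding is given as a within-array Z-score averaged across arrays sharing a protein sequence and across linkers. Negative Z-scores can be read as non-binding.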"}, "[2]": {"target": "Gal(b1-4)GlcNAc(b1-2)Man(a1-6)[Man(a1-3)]Man(b1-4)GlcNAc(b1-4)GlcNAc", "procedure,_shortened": "as §1"}, "[3]": {"target": "Gal(b1-4)GlcNAc(b1-2)[Gal(b1-4)GlcNAc(b1-4)]Man(a1-3)[Gal(b1-4)GlcNAc(b1-2)Man(a1-6)]Man(b1-4)GlcNAc(b1-4)GlcNAc", "procedure,_shortened": "as §1"}, "[4]": {"target": "Gal(b1-4)GlcNAc(b1-2)[Gal(b1-4)GlcNAc(b1-4)]Man(a1-3)[Gal(b1-4)GlcNAc(b1-2)[Gal(b1-4)GlcNAc(b1-6)]Man(a1-6)]Man(b1-4)GlcNAc(b1-4)GlcNAc", "procedure,_shortened": "as §1"}, "[5]": {"target": "Gal(b1-4)GlcNAc(b1-2)[Gal(b1-4)GlcNAc(b1-4)]Man(a1-3)[GlcNAc(b1-4)][Gal(b1-4)GlcNAc(b1-2)Man(a1-6)]Man(b1-4)GlcNAc(b1-4)GlcNAc", "procedure,_shortened": "as §1"}, "[6]": {"target": "Gal(b1-4)GlcNAc(b1-2)[Gal(b1-4)GlcNAc(b1-4)]Man(a1-3)[GlcNAc(b1-4)][Gal(b1-4)GlcNAc(b1-2)[Gal(b1-4)GlcNAc(b1-6)]Man(a1-6)]Man(b1-4)GlcNAc(b1-4)GlcNAc", "procedure,_shortened": "as §1"}, "[7]": {"target": "Gal(b1-4)GlcNAc(b1-2)[Gal(b1-4)GlcNAc(b1-6)]Man(a1-6)[Gal(b1-4)GlcNAc(b1-2)Man(a1-3)]Man(b1-4)GlcNAc(b1-4)GlcNAc", "procedure,_shortened": "as §1"}, "[8]": {"target": "Gal(b1-4)GlcNAc(b1-2)[Gal(b1-4)GlcNAc(b1-6)]Man(a1-6)[Gal(b1-4)GlcNAc(b1-2)Man(a1-3)]Man(b1-4)GlcNAc(b1-4)[Fuc(a1-6)]GlcNAc", "procedure,_shortened": "as §1"}, "[9]": {"target": "Gal(b1-4)GlcNAc(b1-2)[Gal(b1-4)GlcNAc(b1-6)]Man(a1-6)[GlcNAc(b1-4)][Gal(b1-4)GlcNAc(b1-2)Man(a1-3)]Man(b1-4)GlcNAc(b1-4)GlcNAc", "procedure,_shortened": "as §1"}, "[10]": {"target": "Gal(b1-4)GlcNAc(b1-2)[Gal(b1-4)GlcNAc(b1-6)]Man(a1-6)[GlcNAc(b1-4)][Gal(b1-4)GlcNAc(b1-2)[Gal(b1-4)GlcNAc(b1-4)]Man(a1-3)]Man(b1-4)GlcNAc(b1-4)[Fuc(a1-6)]GlcNAc", "procedure,_shortened": "as §1"}, "[11]": {"target": "Gal(b1-4)GlcNAc(b1-3)Gal(b1-3)GalNAc", "procedure,_shortened": "as §1"}, "[12]": {"target": "Gal(b1-4)GlcNAc(b1-3)Gal(b1-3)GlcNAc", "procedure,_shortened": "as §1"}, "[13]": {"target": "Gal(b1-4)GlcNAc(b1-3)Gal(b1-4)Glc", "procedure,_shortened": "as §1"}, "[14]": {"target": "Gal(b1-4)GlcNAc(b1-3)Gal(b1-4)GlcNAc", "procedure,_shortened": "as §1"}, "[15]": {"target": "Gal(b1-4)GlcNAc(b1-3)Gal(b1-4)GlcNAc(b1-2)Man(a1-3)[Gal(b1-4)GlcNAc(b1-3)Gal(b1-4)GlcNAc(b1-2)Man(a1-6)]Man(b1-4)GlcNAc(b1-4)GlcNAc", "procedure,_shortened": "as §1"}, "[16]": {"target": "Gal(b1-4)GlcNAc(b1-3)Gal(b1-4)GlcNAc(b1-2)Man(a1-3)[Gal(b1-4)GlcNAc(b1-3)Gal(b1-4)GlcNAc(b1-2)Man(a1-6)]Man(b1-4)GlcNAc(b1-4)[Fuc(a1-6)]GlcNAc", "procedure,_shortened": "as §1"}, "[17]": {"target": "Gal(b1-4)GlcNAc(b1-3)Gal(b1-4)GlcNAc(b1-2)[Gal(b1-4)GlcNAc(b1-3)Gal(b1-4)GlcNAc(b1-6)]Man(a1-6)[Gal(b1-4)GlcNAc(b1-3)Gal(b1-4)GlcNAc(b1-2)Man(a1-3)]Man(b1-4)GlcNAc(b1-4)GlcNAc", "procedure,_shortened": "as §1"}, "[18]": {"target": "Gal(b1-4)GlcNAc(b1-3)Gal(b1-4)GlcNAc(b1-2)[Gal(b1-4)GlcNAc(b1-3)Gal(b1-4)GlcNAc(b1-6)]Man(a1-6)[Gal(b1-4)GlcNAc(b1-3)Gal(b1-4)GlcNAc(b1-2)Man(a1-3)]Man(b1-4)GlcNAc(b1-4)[Fuc(a1-6)]GlcNAc", "procedure,_shortened": "as §1"}},
  "note": "This is one part of the list.",
  "data": [
    {"binder": "B1", "values": [
      {"measurement": "glycan array binding signal (z-score)", "setting": "[1]", "value": -0.227},
      {"measurement": "glycan array binding signal (z-score)", "setting": "[2]", "value": -0.271},
      {"measurement": "glycan array binding signal (z-score)", "setting": "[3]", "value": -0.285},
      {"measurement": "glycan array binding signal (z-score)", "setting": "[4]", "value": -0.283},
      {"measurement": "glycan array binding signal (z-score)", "setting": "[5]", "value": -0.267},
      {"measurement": "glycan array binding signal (z-score)", "setting": "[6]", "value": -0.296},
      {"measurement": "glycan array binding signal (z-score)", "setting": "[7]", "value": -0.283},
      {"measurement": "glycan array binding signal (z-score)", "setting": "[8]", "value": -0.277},
      {"measurement": "glycan array binding signal (z-score)", "setting": "[9]", "value": -0.282},
      {"measurement": "glycan array binding signal (z-score)", "setting": "[10]", "value": -0.281},
      {"measurement": "glycan array binding signal (z-score)", "setting": "[11]", "value": -0.694},
      {"measurement": "glycan array binding signal (z-score)", "setting": "[12]", "value": -0.286},
      {"measurement": "glycan array binding signal (z-score)", "setting": "[13]", "value": -0.265},
      {"measurement": "glycan array binding signal (z-score)", "setting": "[14]", "value": -0.281},
      {"measurement": "glycan array binding signal (z-score)", "setting": "[15]", "value": -0.244},
      {"measurement": "glycan array binding signal (z-score)", "setting": "[16]", "value": -0.229},
      {"measurement": "glycan array binding signal (z-score)", "setting": "[17]", "value": 0.171},
      {"measurement": "glycan array binding signal (z-score)", "setting": "[18]", "value": -0.221}
    ]}
  ]
}
